Data taken from patent US6583155B2, “Method for treating allergies using substituted pyrazoles” (priority 2000, dated 2003).

Biological target: Recombinant human cathepsin S (CatS) (Homo sapiens, UniProt P25774)
Assay: biochemical

| SMILES | IC50 [nM] |
| --- | --- |
| Cn1c(=O)n(C2CCN(CCCn3nc(-c4ccc(Cl)c(Cl)c4)c4c3CCN(C(N)=O)C4)CC2)c2ccccc21 [Example 36, 3-(3,4-Dichloro-phenyl)-1-{3-[4-(3-methyl-2-oxo-2,3-dihydro-benzoimidazol-1-yl)-piperidin-1-yl]-propyl}-1,4,6,7-tetrahydro-pyrazolo[4,3-c]pyridine-5-carboxylic Acid Amide] | 40 |
| CS(=O)(=O)N1CCc2c(c(-c3ccc(C(F)(F)F)cc3)nn2CC(O)CN2CCC(n3c(=O)n(CC#N)c4ccccc43)CC2)C1 (centres unmarked) [Example 37, [3-(1-{2-Hydroxy-3-[5-methanesulfonyl-3-(4-trifluoromethyl-phenyl)-4,5,6,7-tetrahydro-pyrazolo[4,3-c]pyridin-1-yl]-propyl}-piperidin-4-yl)-2-oxo-2,3-dihydro-benzoimidazol-1-yl]-acetonitrile] | 50 |
| CCOC(=O)Cn1c(=O)n(C2CCN(CC(O)Cn3nc(-c4ccc(C(F)(F)F)cc4)c4c3CCN(S(C)(=O)=O)C4)CC2)c2ccccc21 (centres unmarked) [Example 38, [3-(1-{2-Hydroxy-3-[5-methanesulfonyl-3-(4-trifluoromethyl-phenyl)-4,5,6,7-tetrahydro-pyrazolo[4,3-c]pyridin-1-yl]-propyl}-piperidin-4-yl)-2-oxo-2,3-dihydro-benzoimidazol-1-yl]-acetic Acid Ethyl Ester] | 20 |
| Cn1c(=O)n(C2CCN(CCCn3nc(-c4ccc(Cl)c(Cl)c4)c4c3CCN(C(N)=O)C4)CC2)c2cc(Cl)ccc21 [Example 40, 1-{3-[4-(6-Chloro-3-methyl-2-oxo-2,3-dihydro-benzoimidazol-1-yl)-piperidin-1-yl]-propyl}-3-(3,4-dichloro-phenyl)-1,4,6,7-tetrahydro-pyrazolo[4,3-c]pyridine-5-carboxylic Acid Amide] | 40 |
| Cc1ccc2c(c1)n(C1CCN(CC(O)Cn3nc(-c4ccc(C(F)(F)F)cc4)c4c3CCN(S(C)(=O)=O)C4)CC1)c(=O)n2C (centres unmarked) [Example 41, 3-(1-{2-Hydroxy-3-[5-methanesulfonyl-3-(4-trifluoromethyl-phenyl)-4,5,6,7-tetrahydro-pyrazolo[4,3-c]pyridin-1-yl]-propyl}-piperidin-4-yl)-1,5-dimethyl-1,3-dihydro-benzoimidazol-2-one] | 30 |
| CS(=O)(=O)N1CCc2c(c(-c3ccc(C(F)(F)F)cc3)nn2CC(O)CN2CCC(n3c(=O)[nH]c4cccnc43)CC2)C1 (centres unmarked) [Example 42, 3-(1-{2-Hydroxy-3-[5-methanesulfonyl-3-(4-trifluoromethyl-phenyl)-4,5,6,7-tetrahydro-pyrazolo[4,3-c]pyridin-1-yl]-propyl}-piperidin-4-yl)-1,3-dihydro-imidazo[4,5-b]pyridin-2-one] | 80 |
| COc1ccc2[nH]c(=O)n(C3CCN(CC(O)Cn4nc(-c5ccc(Br)cc5)c5c4CCN(S(C)(=O)=O)C5)CC3)c2n1 (centres unmarked) [Example 43, 3-(1-{3-[3-(4-Bromo-phenyl)-5-methanesulfonyl-4,5,6,7-tetrahydro-pyrazolo[4,3-c]pyridin-1-yl]-2-hydroxy-propyl}-piperidin-4-yl)-5-methoxy-1,3-dihydro-imidazo[4,5-b]pyridin-2-one] | 20 |
| COc1ccc2[nH]c(=O)n(C3CCN(CC(O)Cn4nc(-c5ccc(Br)cc5)c5c4CCN(C(N)=O)C5)CC3)c2n1 (centres unmarked) [Example 44, 3-(4-Bromo-phenyl)-1-{2-hydroxy-3-[4-(5-methoxy-2-oxo-1,2-dihydro-imidazo[4,5-b]pyridin-3-yl)-piperidin-1-yl]-propyl}-1,4,6,7-tetrahydro-pyrazolo[4,3-c]pyridine-5-carboxylic Acid Amide] | 30 |
| COc1ccc2c(n1)n(C1CCN(CC(O)Cn3nc(-c4ccc(C(F)(F)F)cc4)c4c3CCN(S(C)(=O)=O)C4)CC1)c(=O)n2C (centres unmarked) [Example 45, 3-(1-{2-Hydroxy-3-[5-methanesulfonyl-3-(4-trifluoromethyl-phenyl)-4,5,6,7-tetrahydro-pyrazolo[4,3-c]pyridin-1-yl]-propyl}-piperidin-4-yl)-5-methoxy-1-methyl-1,3-dihydro-imidazo[4,5-b]pyridin-2-one] | 20 |
| CN(C)c1ccc2[nH]c(=O)n(C3CCN(CC(O)Cn4nc(-c5ccc(C(F)(F)F)cc5)c5c4CCN(S(C)(=O)=O)C5)CC3)c2n1 (centres unmarked) [Example 46, 5-Dimethylamino-3-(1-{2-hydroxy-3-[5-methanesulfonyl-3-(4-trifluoromethylphenyl)-4,5,6,7-tetrahydro-pyrazolo[4,3-c]pyridin-1-yl]-propyl}-piperidin4-yl)-1,3-dihydro-imidazo[4,5-b]pyridin-2-one] | 30 |
| Cc1cc(-c2nn(CC(O)CN3CCC(n4c(=O)[nH]c5ccc(Cl)cc54)CC3)c3c2CN(S(C)(=O)=O)CC3)ccc1Cl (centres unmarked) [Example 53, 6-Chloro-1-(1-{3-[3-(4-chloro-3-methyl-phenyl)-5-methanesulfonyl-4,5,6,7-tetrahydro-pyrazolo[4,3-c]pyridin-1-yl]-2-hydroxy-propyl}-piperidin4-yl)-1,3-dihydro-benzoimidazol-2-one] | 50 |
